Drawing on the supplement of paper PMC10126150, this text covers switch fluorescence ratio for 67 sequences.

In the series the test system is ATP. Kind of series: switch fluorescence ratio, 500 uM ATP over buffer (Cy3 cluster intensity, sum of 5 cycles each) (fold (ratio)); higher = stronger signal-on switching upon ATP binding; sequences stand for … in TCGTCGGCAGCGTCAGATGTGTATAAGAGACAGTTTTTTTTTTTTTTTTTTTTTTTTT…TC. The settings on record: aptamer strand: ATP DNA aptamer (quencher-CACCTGGGGGAGTATTGCGGAGGAAGG + anchor), 100 nM annealed; ATP concentration: 500 uM; one replicate. The gist of the method: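 Imaging in selection buffer was followed by imaging after 15 min with 500 uM ATP at 22 °C, for Cy3-labelled switching-strand clusters annealed to 100 nM quencher-labelled ATP aptamer on a modified Illumina MiSeq flow-cell. Five of these buffer/ATP cycles ran, separated by NaOH stripping and re-annealing. The fluorescence ratio per cluster is summed target-cycle over summed buffer-cycle Cy3 intensity, averaged per switch-domain sequence; clusters outside 100-1000 RFU were removed.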

Values marked as one replicate rest on one cluster of the flow cell; about a third of the high ones do not repeat.
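Note: ATP exposure 15 min at 22 °C before imaging.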

As for TTCAGGGTG, the switch fluorescence ratio was determined as 1.09.
For the sequence GTTTGAGC, the switch fluorescence ratio is 1.04.
Regarding GTTCTTTTAA, the switch fluorescence ratio amounted to 0.937.
As for TAAAAAACAC, the switch fluorescence ratio is 1.03.
As for TTTGAGTCGT, the switch fluorescence ratio was 1.02.
Take GATGTGGTAC: the switch fluorescence ratio came out at 1.3.
As for ACTTAGATAA, the figure is 1.04; as for GAATAGTTTA, 0.986; as for CCTAACCCTG, 1.05.
Regarding GTGTTAAACG, the switch fluorescence ratio was found to be 1.06.
CGATCATTTC: the switch fluorescence ratio turned out to be 0.997.
In the case of CACTTTAACC it was 1.11.
For CGTAGCCGGC, the switch fluorescence ratio was 0.966.
In the case of GCAAAAATG it was 0.992; in that of GTGCACTCCG, 1.18.
As to TCGACCCCCG, the switch fluorescence ratio stood at 1.09.
In the case of AAGAGTTCAC, the switch fluorescence ratio is 1.
Regarding GCCATGGAGT, the switch fluorescence ratio amounted to 1.04.
Take TTTTCCAAAA: the switch fluorescence ratio came to 1.09.
As for CTTTACGCAC, the figure is 1.81; as for TGTGCCTAT, 0.978; as for TTTTGGTTT, 0.968.
As for CAGCTGGGGC, the switch fluorescence ratio came to 0.975.
In the case of GGCTATATCA it was 0.984.
For GTAAACTTGT, the switch fluorescence ratio amounted to 0.981.
As for CTCGAATTTG, the switch fluorescence ratio came out at 0.995.
For the sequence AAGGTACTGA, the switch fluorescence ratio amounted to 1.03.
With AGTTGCTGC, the switch fluorescence ratio is 1.05.
As for AAAAGAGGAT, the switch fluorescence ratio turned out to be 1.01.
With AGGACTAGC, the switch fluorescence ratio was 1.
Consider AGGCCGATTA, for which the switch fluorescence ratio was found to be 0.986.
GGTTTATTCT: the switch fluorescence ratio was determined as 1.02.
As for TCAGCATAG, the switch fluorescence ratio was determined as 1.15.
In the case of CAATGATTAC it was 1.07; in that of GCTATTATAG, 0.971; in that of ACGTAAGTTT, 1.06.
As to GACCGTGGCT, the switch fluorescence ratio is 0.994.
Take AGCCAATAG: the switch fluorescence ratio stood at 3.59.
In the case of CGCATGTGTG it was 1.02; in that of CGCGTGCAG, 0.981.
Consider CGGACTGTGC, for which the switch fluorescence ratio came out at 1.02.
As for GGCACGAAGG, the figure is 1.04; as for ACAGTACGCC, 1.31; as for ACACTCCAGA, 1.06.
In the case of TCCTTTAAAG it was 1.04; in that of GAAAAACAAC, 1.1.
For ACGTTTGT, the switch fluorescence ratio came out at 0.968.
As for CAGCGTGTGA, the switch fluorescence ratio stood at 1.
In the case of TCCTAGGCT, the switch fluorescence ratio turned out to be 1.04.
As to GTGAGTTCGG, the switch fluorescence ratio came to 1.04.
As for AGCTATCATA, the figure is 0.967; as for CTAGCCGGAC, 1; as for GCACAATCCC, 1.26.
In the case of GATCTGATCC it was 0.971; in that of CTTAGTGTG, 0.981; in that of TACCTTAACG, 1.16.
As for CATGCGTAGG, the figure is 0.984; as for AGGCGCAGGC, 0.995; as for CTAGCATCAC, 2.41.
As to CGGTGTCTGG, the switch fluorescence ratio was 0.99.
For TTAATAGG, the switch fluorescence ratio amounted to 1.01.
As to GCAGCTTAAT, the switch fluorescence ratio was found to be 1.13.
For AGGCTTATCA, the switch fluorescence ratio worked out at 0.962.
Turning to TTTCGTTGTG, the switch fluorescence ratio was found to be 1.01.
As to AGGGTGAGTG, the switch fluorescence ratio came out at 1.03.
As for TTCAGTTCTC, the switch fluorescence ratio stood at 1.14.
In the case of AATGTATCTC it was 0.96.
